± gives the standard deviation of the averaged measurements. Over roughly 33,000 sequences, “E-score (dimensionless, -0.5 to 0.5)” has its median near -0.049; the highest 2% begin near 0.37. Some of the results follow.
system: T1, PmTbr T-box DNA-binding domain (GST fusion); assay: PBM E-score of 8-mer (E-score (dimensionless, -0.5 to 0.5)); Tbr is Tbrain of the sea star Patiria miniata (Pm) or the sea urchin Strongylocentrotus purpuratus (Sp); higher = stronger binding preference; most listed sequences are background and not binding sites; conditions: the construct has about 5 more residues each side
T1 sequence: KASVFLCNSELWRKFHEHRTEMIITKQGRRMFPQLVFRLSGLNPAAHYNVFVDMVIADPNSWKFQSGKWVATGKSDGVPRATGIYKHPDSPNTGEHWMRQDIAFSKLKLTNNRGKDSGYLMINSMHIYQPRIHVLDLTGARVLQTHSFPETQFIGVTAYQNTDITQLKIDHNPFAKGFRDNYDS
Outline: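 Using the Universal PBM Analysis Suite, every ungapped 8-mer received an enrichment E-score averaged over duplicate arrays. Probe intensities came from double-stranded Universal Agilent oligonucleotide arrays incubated with 200 nM GST-fused Tbr T-box DNA-binding domain in PBS (pH 7.5). That protein was expressed in BL21 E. coli at 20 °C and purified by glutathione affinity chromatography.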

Sequence	PBM E-score of 8-mer
CCGACAGC	0.0678 ± 0.046
ATACGAAG	-0.226 ± 0.059
AAATAAAC	-0.0315 ± 0.039
CCCTTTAG	0.0181 ± 0.024
CTACTAGA	-0.239 ± 0.057
CAAATATG	-0.0284 ± 0.035
CTAACCAG	0.0114 ± 0.0043
AAGACGAA	-0.247 ± 0.023
TAATGCAA	-0.067 ± 0.06
ATCTCTCC	-0.218 ± 0.0088
AAACAGGA	-0.146 ± 0.0093
GCCAACGC	0.106 ± 0.038
GATCAATC	-0.153 ± 0.0053
CAGCGCTG	0.0573 ± 0.064
CCGTAGGA	-0.121 ± 0.073
CGTGGCCA	-0.000825 ± 0.032
AATGCGCC	0.0919 ± 0.1
GGAAGGCA	-0.117 ± 0.096
CCATTTTA	0.0304 ± 0.031
ATTTCTCC	-0.0485 ± 0.011
AACTTTCT	0.00835 ± 0.085
ATAGTAGC	-0.108 ± 0.061
CGGATCGC	-0.0419 ± 0.036
GGACGGCA	-0.0763 ± 0.029
GTGTGACA	0.4709 ± 0.0035

Sequence	PBM E-score of 8-mer
AAGCTGAA	-0.212 ± 0.041
ACTTGCCG	0.145 ± 0.015
ATCGAGTG	0.167 ± 0.007
GGAGCACC	-0.0985 ± 0.042
CTGACAAC	0.257 ± 0.012
AGTATGGC	-0.0112 ± 0.037
AGGTTTCG	-0.0164 ± 0.093
ATCAGGAC	-0.317 ± 0.0084
ATCGCCGC	-0.0805 ± 0.038
GTCCGCGA	0.126 ± 0.042
AAGGTGCC	0.405 ± 0.0071
ACGGCTTC	-0.09216 ± 0.00057
GAGAATGA	-0.0166 ± 0.016
GTTGATAA	0.0639 ± 0.084
GGCCTCCA	-0.268 ± 0.014
CGACCACG	0.00422 ± 0.031
CTGCAGCC	-0.105 ± 0.016
TCTTGTCA	0.207 ± 0.023
AACGTCCG	-0.24 ± 0.012
GATCACTA	-0.128 ± 0.0032
CGATAATA	0.0353 ± 0.00066
TAAATTTA	0.0181 ± 0.14
CGTCCGTC	-0.149 ± 0.077
AGTCCGCA	0.017 ± 0.034
CTTCGTCC	0.00228 ± 0.079

Sequence	PBM E-score of 8-mer
GAGCGGTA	-0.17 ± 0.035
ACAAAAGA	-0.176 ± 0.037
TAAAGCGA	0.033 ± 0.058
ATGGGTAC	-0.173 ± 0.035
CACGATGC	0.116 ± 0.041
AACCATCT	-0.158 ± 0.031
AGTTTAGG	-0.0822 ± 0.012
AATGCAGA	-0.205 ± 0.01
CCCCTCGC	-0.0134 ± 0.0076
CGTTCGAA	-0.203 ± 0.075
GCTGATAA	0.0336 ± 0.024
GGACTACA	-0.285 ± 0.0066
CGGAAAAC	-0.214 ± 0.053
CATAGATC	-0.153 ± 0.019
TGGTGTAA	0.28 ± 0.011
AAACTACG	-0.105 ± 0.073
AACTAAAA	-0.0488 ± 0.026
CACTCCCA	0.158 ± 0.05
CGCATGAG	-0.0134 ± 0.013
AACGTATA	-0.0512 ± 0.012
ATTCGTCG	0.189 ± 0.02
ATTACAAT	-0.283 ± 0.0071
ATGGCTGG	-0.125 ± 0.083
ACATCCGT	0.0963 ± 0.035
CCGGGGTC	-0.0674 ± 0.15

Sequence	PBM E-score of 8-mer
ATCAAGGC	-0.141 ± 0.09
ACGCAACA	0.199 ± 0.013
GATCACCA	0.0245 ± 0.015
CTCAGCAC	0.156 ± 0.063
CACCAGCA	0.171 ± 0.064
AAACGGCC	-0.239 ± 0.026
CCTGGAAA	-0.133 ± 0.014
CGGGTTGA	-0.0346 ± 0.0013
TACGCGTA	0.234 ± 0.036
GTGGAGAA	0.0155 ± 0.022
CCTTCGCA	0.329 ± 0.0034
GCTACCTA	0.0587 ± 0.017
GTTCCCTA	-0.236 ± 0.019
ACTACGAA	-0.0903 ± 0.018
GTGATGCA	0.06 ± 0.12
GGTGCTCA	-0.112 ± 0.025
AATCTAGA	0.187 ± 0.027
CGGACCGC	-0.0357 ± 0.066
AGAAGCAC	-0.0745 ± 0.019
ATCTAACG	0.0772 ± 0.042
AGTAGGAC	-0.252 ± 0.017
ACGTTAAG	-0.161 ± 0.018
ACTGATAG	0.0376 ± 0.032
TGCCACCA	0.236 ± 0.018
CGGATACC	-0.124 ± 0.0024

Sequence	PBM E-score of 8-mer
ACCTAAGC	-0.042 ± 0.037
CGTTCTCC	-0.19 ± 0.048
AGATCAGA	-0.311 ± 0.016
ACGTCCAC	-0.0664 ± 0.037
AAAGGTAT	-0.0701 ± 0.061
AGCAGTCG	0.019 ± 0.038
ACCGAAAT	-0.108 ± 0.048
AGCCACCC	-0.183 ± 0.038
GAACCAAA	-0.198 ± 0.059
AGCATAAA	-0.12 ± 0.062
CAACTAAG	-0.0704 ± 0.055
GCTGCGCC	-0.0388 ± 0.047
CAGCTGCA	-0.101 ± 0.06
CAAGTCTC	0.172 ± 0.046
TTACGTAA	-0.0761 ± 0.031
AGCCCTTC	-0.194 ± 0.017
TCTGGGCA	-0.0451 ± 0.023
ACAAACAG	-0.083 ± 0.0083
AGCCGACT	-0.22 ± 0.0026
CGCGCCGA	0.21 ± 0.064
CCCGGCCA	-0.23 ± 0.025
GATAAGAA	0.102 ± 0.13
TGAAGACA	0.0807 ± 0.028
AGCCGTAC	-0.2803 ± 0.00098
CGAGCATC	-0.0802 ± 0.0088

Sequence	PBM E-score of 8-mer
AGAACGAA	-0.0612 ± 0.042
GCCCTAGC	-0.203 ± 0.061
CATATTTA	-0.0588 ± 0.093
AAGATAAT	-0.18 ± 0.038
GCGGTCAA	-0.18 ± 0.05
CCGCGGTC	-0.222 ± 0.077
TTTGCAAA	-0.056 ± 0.12
GTCTAGCA	0.141 ± 0.028
TCACGTCA	0.0939 ± 0.054
GAAGTGCA	0.179 ± 0.012
AGTGGGGC	0.0261 ± 0.12
TAAAGTGA	0.216 ± 0.056
ACTCCAAG	0.00615 ± 0.0035
ACGGTAAA	-0.267 ± 0.12
GAGTTGCC	0.0293 ± 0.068
ACCCTTGA	-0.0411 ± 0.022
ACAATGCG	0.217 ± 0.015
ACAGTGTA	0.0105 ± 0.032
AACTGTCA	0.3 ± 0.049
ACCTGCAG	0.118 ± 0.037
AGTTGCGA	0.412 ± 0.0052
CATCTCGC	0.172 ± 0.027
AGCTAGTC	0.0595 ± 0.059
CCCTCGAG	-0.301 ± 0.036
CCTATGAG	-0.187 ± 0.01

Sequence	PBM E-score of 8-mer
AAGACGTC	-0.123 ± 0.039
AAAAACGC	0.121 ± 0.033
AGATGACG	0.066 ± 0.088
AGAGCGAC	-0.0157 ± 0.028
GCCACGAA	0.039 ± 0.026
ATACTTTC	0.0343 ± 0.068
ACTCTGTC	0.0361 ± 0.024
CTTGATAA	0.151 ± 0.072
GTCAGCAC	0.286 ± 0.0094
CGCTCGCA	0.337 ± 0.0072
AAAACAGA	-0.132 ± 0.062
ATATGTCC	-0.203 ± 0.019
ACCCCCAT	-0.113 ± 0.0049
CCGAACCC	-0.364 ± 0.025
CGTGGGAG	-0.087 ± 0.053
CTTCCTAA	-0.0585 ± 0.068
CCGCACTA	0.0832 ± 0.031
TAATCCAA	-0.067 ± 0.059
CCCGAGTA	-0.0583 ± 0.034
CCCCAAAC	-0.132 ± 0.029
CCCTCTCA	0.0553 ± 0.024
ACTCGAAG	0.0915 ± 0.0019
